Hit rate of the full screen: of about 360,000 compounds, about 7,500 (2.1%) were called active. The shares of active, inactive and inconclusive entries below differ from those in the screen. The call rests on the fitted dose curve; in most records, active means well fitted cell-killing curve with a large enough effect; inconclusive means small, poorly fitted or top-dose-only effect, or effect the other way, or another doubt; inactive means no such curve, though single readings can be large or run the other way. No potency is given beside an inconclusive call; the fits are too rough.
assay: qHTS for induction of synthetic lethality in tumor cells producing 2HG: qHTS for the HT-1080-IDH1KD cell line; conditions: HT-1080 IDH1 knockdown viability, ATP luminescence, 48 h; activity, negative = toxicity: at 46.1 µM (top of the series) unless noted;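 on activity, negative = toxicity: 0% = DMSO wells and -100% = cell-free medium wells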
Outline: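 Luminescent ATP read-out (CellTiter-Glo, 10 min at room temperature) after 48 h compound exposure at 37 °C gave viability of IDH1-knockdown HT-1080 cells. Activity was normalised to DMSO and cell-free wells, then fitted as concentration-response curves.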
Potency means the concentration at half of the fitted maximal effect; tags describe the fitted curve by direction and shape.

| SMILES | Potency | activity, negative = toxicity |
| --- | --- | --- |
| CCOC(=O)[C@]12CCCC=C1N(Cc1ccc(Cl)cc1Cl)C(=O)[C@H](CC(=O)N1CCN(C(=O)c3ccco3)CC1)C2 | inconclusive [cytotoxic, single point] | – |
| Cc1sc(NC(=O)C2C3CCC(C3)C2C(=O)O)c(C(N)=O)c1-c1ccc(C(C)(C)C)cc1 (stereo not drawn) | inconclusive [cytotoxic, partial curve] | – |
| CCN(CC)c1ccc(NC(=O)Nc2cccc(C(C)=O)c2)cc1 | inconclusive [cytotoxic, single point] | – |
| Cc1cccc(N2CCN(C(=O)Cc3cn(C)c4ccccc34)CC2)c1C | inconclusive [cytotoxic, single point] | – |
| COc1ccc(-c2cc3nc(-c4ccccc4)cc(N4CCCC(O)C4)n3n2)cc1 (stereo not drawn) | active: 20.6 µM | – |
| CN(C(=O)c1cccc(NC(=O)Cc2ccc(NC(=O)C3CCCN(C(=O)C4CCCC4)C3)cc2)c1)C1CC1 (stereo not drawn) | inactive | – |
| Cc1cc(Oc2nc3ccccn3c(=O)c2/C=C(\C#N)C(=O)NC2CCS(=O)(=O)C2)ccc1Cl (stereo not drawn) | inconclusive [cytotoxic, single point] | – |
| COc1cc(CNc2ccc3[nH]c(=O)[nH]c3c2)cc(Br)c1OCC(=O)NC(C)(C)C | inconclusive [cytotoxic, single point] | – |
| CCOC(=O)/C=C/C(=O)Nc1ccc(S(=O)(=O)N(C)c2ccccc2)cc1 | active: 20.6 µM | – |
| CCC(C)(C)NC(=O)C(c1ccc(C)cc1)N(Cc1cccs1)C(=O)c1ccc2c(c1)OCCO2 (stereo not drawn) | inconclusive [cytotoxic, single point] | – |
| O=C(NC(c1ccc(-c2ccccc2)cc1)c1cnccn1)C1CCN(Cc2cccs2)CC1 (stereo not drawn) | inconclusive [cytotoxic, single point] | – |
| CC(C)(O)CN(C(=O)C(c1ccccc1)c1ccccc1)C1CCCCC1 | inactive | – |
| COc1ccc(-c2nc(-c3ccc(NC(=O)c4ccc(Br)o4)cc3)no2)cc1OC | inconclusive [cytotoxic, partial curve] | – |
| O=C(C1CCCN1S(=O)(=O)c1ccc(Cl)cc1)N1CCCCC1 (stereo not drawn) | inconclusive [rising, partial curve] | – |
| O=C(Nc1cccnc1)c1ccc(COc2ccccc2Br)cc1 | inconclusive [cytotoxic, single point] | – |
| Cc1ccc(C(=O)Sc2cccccc2=O)cc1 | active: 1.64 µM | – |
| C[C@H]1COc2cccc(N3CCC[C@H]3CO)c2S(=O)(=O)N1 | inconclusive [rising, single point] | – |
| CC(=O)N[C@@H](Cc1c[nH]c2ccccc12)C(=O)OCc1cc(C(F)(F)F)cc(C(F)(F)F)c1 | inconclusive [cytotoxic, single point] | – |
| S=C(NCc1ccccc1)Nc1cccc2cnccc12 | inconclusive [cytotoxic, partial curve] | – |
| COc1ccc(S(=O)(=O)Nc2cccc3c2O[C@H](CN(C)C(=O)NC(C)C)[C@@H](C)CN([C@H](C)CO)C3=O)cc1 | inactive | – |
| COc1cc2nc(SCC(N)=O)n(CCC3=CCCCC3)c(=O)c2cc1OC | inconclusive [cytotoxic, single point] | – |
| CCCCN(C(=O)C1CC(=O)N(Cc2ccc(C)cc2)C1)c1c(N)n(CC(C)C)c(=O)[nH]c1=O (stereo not drawn) | inactive | – |
| Cc1cc(NC(=O)CS(=O)(=O)c2cn(Cc3ccccc3Cl)c3ccccc23)no1 | inconclusive [cytotoxic, single point] | – |

| SMILES | Potency | activity, negative = toxicity |
| --- | --- | --- |
| Oc1cccc2ccc(Nc3ccccn3)nc12 | active: 5.8 µM | – |
| COc1cccc(C(=O)OC(C)C(=O)NCC2CCCCC2)c1 (stereo not drawn) | inactive | – |
| CN(C(=O)c1cccc(NC(=O)Cc2cccc(NC(=O)C3CCN(C(=O)C4CCC4)CC3)c2)c1)C1CC1 | inactive | – |
| CS(=O)(=O)N1CCN(c2ccc(NC(=S)NC(=O)c3cccs3)cc2)CC1 | inactive | – |
| O=C1CCCC2=C1C(c1ccco1)Nc1ccc(C(=O)c3ccccc3)cc1N2 (stereo not drawn) | inconclusive [cytotoxic, partial curve] | – |
| COc1ccc(CNC(=O)c2cccc3c(-c4cccc(C(N)=O)c4)coc23)cc1OC | active: 5.8 µM | – |
| Cc1ccc2c(c1)c1c3n2CCNC3CCC1 (stereo not drawn) | inconclusive [cytotoxic, partial curve] | – |
| O=C(NCC1CC1)c1ccc2c3n(nc2c1)-c1ccccc1CO3 | – | inconclusive: -22.4% [cytotoxic] |
| c1ccc(C2=NN(c3ccccc3)C(c3ccco3)C2)cc1 (stereo not drawn) | inactive | – |
| CCCCNC(=S)NNC(=O)c1sccc1C | inconclusive [cytotoxic, partial curve] | – |
| CCCCOc1ccc(-c2cc(C(=O)NNC(=S)NCC)c3ccccc3n2)cc1 | inconclusive [cytotoxic, single point] | – |
| Cc1cc(C)cc(N(CCC(=O)Nc2nnc(C3CC3)s2)S(=O)(=O)c2ccc(Cl)cc2)c1 | inconclusive [cytotoxic, partial curve] | – |
| Cc1cc(C)cc(Oc2nc(-c3ccccc3)cc(C)c2S(C)(=O)=O)c1 | inconclusive [cytotoxic, single point] | – |
| COc1cccc(NC=C2C(=O)OC(C)(C)OC2=O)c1 | inconclusive [cytotoxic, partial curve] | – |
| C[n+]1c2cc(N)ccc2cc2ccc(N)cc21 | active: 3.26 µM | – |
| CC1CCCN(CCOc2ccc3ccccc3c2Br)C1 (stereo not drawn) | active: 18.4 µM | – |
| O=C(c1cc(C(=O)NCCc2ccccc2)c(=O)n(CCc2ccccc2)c1)c1cc(Cl)ccc1O | inconclusive [cytotoxic, partial curve, poor fit] | – |
| COc1ccc(C(C#N)=C2C=CC(=NO)C=C2)cc1 | active: 10.3 µM | – |
| COc1ccc(C(=O)/C=C/C(=O)N(CC(=O)NC2CCCCC2)Cc2ccccc2OC)c(O)c1 | inconclusive [cytotoxic, single point] | – |
| O=C(c1ccccc1)N1CCN(Cc2cccc(Oc3ccccc3)c2)CC1 | inactive | – |
| COC(=O)C1=C(C)NC(C)=C(C(=O)O[C@@H]2CCCN(Cc3ccccc3)C2)[C@@H]1c1cccc([N+](=O)[O-])c1 | inconclusive [cytotoxic, single point] | – |
| COC(=O)N/N=C/c1ccccc1OCCOc1ccc(OC)cc1 | inactive | – |
| Cc1ccc(C(C#N)=Cc2ccc3c(c2)OCO3)cc1 | inconclusive [cytotoxic, single point] | – |

| SMILES | Potency | activity, negative = toxicity |
| --- | --- | --- |
| COc1ccc(N2CCN(C(=O)c3ccc(F)cc3)CC2)c([N+](=O)[O-])c1 | inactive | – |
| O=[N+]([O-])c1ccc(N/N=C/c2c[nH]c3ccccc23)cc1 | inconclusive [cytotoxic, partial curve] | – |
| COCCn1c(SCC(=O)Nc2sccc2C(N)=O)nc2cc(Cl)ccc2c1=O | inconclusive [cytotoxic, single point] | – |
| CC(Nc1nc(-c2ccc3c(c2)NC(=O)CO3)cs1)c1ccccc1 (stereo not drawn) | inconclusive [cytotoxic, single point] | – |
| O=C(NC1CCCCC1)C(C1CC1)n1c(=O)c(-c2ccccc2)nc2ccccc21 (stereo not drawn) | inconclusive [cytotoxic, partial curve] | – |
| CCN(CC)c1ccc(S(=O)(=O)N2CCOCC2)cc1NC(=O)COC(=O)c1cccnc1SC | inactive | – |
| COc1cc(C(C[N+](=O)[O-])c2c(N)n(C)c(=O)n(C)c2=O)ccc1O (stereo not drawn) | active: 20.6 µM | – |
| Cc1ccc(-c2cc(=O)c3cc(F)ccc3[nH]2)cc1 | inactive | – |
| O=C(O)c1ccc(NCc2nc3ccccc3n2Cc2ccccc2F)cc1 | – | inconclusive: -31.4% [cytotoxic] |
| CC(C)COc1cccc(-c2cc(C(=O)Nc3ccon3)c3ccccc3n2)c1 | inconclusive [cytotoxic, partial curve] | – |
| CCN(CC)CCNC(=O)c1ccc(NC(=O)Cc2cccc3ccccc23)cc1 | inconclusive [cytotoxic, single point] | – |
| CC(CCc1ccccc1)NC(=O)COC(=O)c1cc(NS(=O)(=O)c2ccc(Cl)c([N+](=O)[O-])c2)ccc1O (stereo not drawn) | inconclusive [cytotoxic, single point] | – |
| CCN(CC)S(=O)(=O)c1cc(NC(=O)Cn2ncc(Cl)c(Cl)c2=O)ccc1C | active: 7.31 µM | – |
| Cc1cc(C)nc(SCC(=O)Nc2ncc(Cc3cccc(Cl)c3)s2)n1 | inconclusive [cytotoxic, single point] | – |
| N#CCc1ccnc2ccccc12 | inactive | – |
| O=C(c1ccccc1)N1CCCC(C(=O)N2CCc3ccccc3C2)C1 (stereo not drawn) | inactive | – |
| Cc1ccccc1-c1nc(S(=O)(=O)c2ccc(Br)cc2)c(NCc2cccnc2)o1 | inconclusive [cytotoxic, single point] | – |
| Cc1ccc(C(=O)Nc2nc3ccccc3[nH]2)cc1 | inconclusive [cytotoxic, partial curve] | – |
| CCOC(=O)c1ccc(-n2c(CCC(=O)O)ccc2-c2cccs2)cc1 | inconclusive [cytotoxic, partial curve] | – |
| Cc1cc(C)nc(SCc2csc(-c3ccccc3)n2)n1 | inconclusive [rising, partial curve, poor fit] | – |
| O=C(Nc1ccc(Cl)c(S(=O)(=O)N2CCOCC2)c1)c1ccc(OCC2CCCO2)cc1 (stereo not drawn) | active: 25.9 µM | – |
| CC(C)(C)c1ccc(OCC(O)CSc2ncn[nH]2)cc1 (stereo not drawn) | inconclusive [cytotoxic, single point] | – |
